The results in this text go back to the supplement of paper PMC4604168 (melanoma cell lines).

Molecules are shown by their SMILES. The list shows a part of the results. Many values rest on one well or one pass, so single values are uncertain.

Some test systems named below: WM115; WM1716; WM1745; WM3526; WM3619; WM451Lu.
Holding throughout (test): cell count relative to DMSO control; melanoma cells; higher = more viable cells
Conditions in all cases: library dose: low library concentration; 72 h
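Further: cell number obtained by counting DAPI-stained nuclei in high-throughput microscope images with image analysis software, screen run in 1,536-well plates.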

On to `NC1(c2ccc(-c3nc4ccn5c(=O)[nH]nc5c4cc3-c3ccccc3)cc2)CCC1` + O=C(O)C(=O)Nc1sc2c(c1C(=O)O)CCNC2 [TCS401] (first compound 0.4 µM, partner dose 1.66667 µM), for which the cell count in the assay with WM115 was determined as 77.2%; in the assay with WM1716, 83.8%; in the assay on WM1745, 73.3%; with WM3526, 66.3%; in the assay on WM3619, 92.6%; in the assay on WM451Lu, 105%.

Consider `CS(=O)(=O)c1ccc(C(=O)Nc2ccc(Cl)c(-c3ccccn3)c2)c(Cl)c1` [vismodegib] + C=C(c1ccc(C(=O)O)cc1)c1cc2c(cc1C)C(C)(C)CCC2(C)C [Bexarotene] (first compound 1 µM, partner dose 2 µM), for which the cell count was 98.3% in the assay with WM115; 76.6% with WM1716; 101% with WM1745; 88.6% in the assay on WM3526; 92.7% with WM3619; 80.3% with WM451Lu.

Take `CN(c1ncccc1CNc1nc(Nc2ccc3c(c2)CC(=O)N3)ncc1C(F)(F)F)S(C)(=O)=O` + COc1ccc2c(c1)CCC1C2CCC2(C)C(NCCCCCCN3C(=O)C=CC3=O)CCC12 [U73122] (first compound 0.08 µM, partner dose 0.4 µM): the cell count in the assay on WM115 came to 90.7%; in the assay with WM1716, 78.5%; in the assay with WM1745, 67.1%; with WM3526, 70.2%; with WM3619, 108%; in the assay with WM451Lu, 93.5%.

`CCCS(=O)(=O)Nc1ccc(F)c(C(=O)c2c[nH]c3ncc(Cl)cc23)c1F` + NCC(=O)Nc1ccc(-n2nc(C(F)(F)F)cc2-c2ccc3c(ccc4ccccc43)c2)cc1 [OSU03012] (first compound 0.08 µM, partner dose 1 µM): the cell count in the assay on WM115 was found to be 81%; in the assay on WM1716, 112%; in the assay on WM1745 it was 43.6%; with WM3526, 52%; in the assay on WM3619 it was 98.1%; in the assay on WM451Lu, 71.2%.

As for `CCCS(=O)(=O)Nc1ccc(F)c(C(=O)c2c[nH]c3ncc(Cl)cc23)c1F` + COc1ccc2c(c1)CCC1C2CCC2(C)C(NCCCCCCN3C(=O)C=CC3=O)CCC12 [U73122] (first compound 0.08 µM, partner dose 0.4 µM), the cell count with WM115 worked out at 102%; with WM1716 it was 109%; with WM1745 it was 129%; in the assay with WM3526, 103%; with WM3619, 99%; in the assay with WM451Lu, 94.2%.

For the compound `CS(=O)(=O)c1ccc(C(=O)Nc2ccc(Cl)c(-c3ccccn3)c2)c(Cl)c1` [vismodegib] + CCN(CC)CCNC(=O)c1c(C)[nH]c(/C=C2\C(=O)Nc3ccc(F)cc32)c1C [sunitinib] (first compound 1 µM, partner dose 0.4 µM), the cell count with WM115 was determined as 128%; in the assay with WM1716, 128%; with WM1745, 105%; in the assay with WM3526, 90.9%; with WM3619, 137%; in the assay on WM451Lu it was 93.9%.

On to `CN(c1ncccc1CNc1nc(Nc2ccc3c(c2)CC(=O)N3)ncc1C(F)(F)F)S(C)(=O)=O` + COCC[n+]1c2c(n(Cc3cnccn3)c1C)C(=O)c1ccccc1C2=O [YM155] (first compound 0.08 µM, partner dose 0.0004 µM), for which the cell count in the assay with WM115 worked out at 89.1%; in the assay on WM1716 it was 63.3%; with WM1745 it was 80.8%; in the assay with WM3526 it was 86.2%; in the assay with WM3619, 89.4%; in the assay with WM451Lu, 51%.

`C=C(c1ccc(C(=O)O)cc1)c1cc2c(cc1C)C(C)(C)CCC2(C)C` [Bexarotene] + OCc1c[nH]c2ccccc12 [Indole-3-carbinol] (first compound 2 µM, partner dose 0.8 µM): the cell count with WM115 was 99.3%; with WM1716 it was 76.1%; in the assay on WM1745 it was 107%; in the assay with WM3526, 78.5%; in the assay on WM3619 it was 94.3%; in the assay with WM451Lu it was 96.1%.

In the case of `NC1(c2ccc(-c3nc4ccn5c(=O)[nH]nc5c4cc3-c3ccccc3)cc2)CCC1` + Cn1cncc1[C@@](N)(c1ccc(Cl)cc1)c1ccc2c(c1)c(-c1cccc(Cl)c1)cc(=O)n2C [tipifarnib] (first compound 0.4 µM, partner dose 0.01 µM), the cell count in the assay with WM115 came to 63.9%; with WM1716, 69.6%; with WM1745, 82.5%; with WM3526, 65.7%; with WM3619, 79%; in the assay on WM451Lu it was 79.4%.

Turning to `CS(=O)(=O)c1ccc(C(=O)Nc2ccc(Cl)c(-c3ccccn3)c2)c(Cl)c1` [vismodegib] + Oc1cc(-c2nc(-c3ccccc3)[nH]c2-c2ccncc2)ccc1Cl [L779450] (first compound 1 µM, partner dose 0.2 µM), the cell count with WM115 was 88.9%; in the assay on WM1716, 92.8%; in the assay with WM1745 it was 83.7%; in the assay on WM3526, 78.5%; in the assay on WM3619, 102%; in the assay on WM451Lu, 94.5%.

For `CN(c1ncccc1CNc1nc(Nc2ccc3c(c2)CC(=O)N3)ncc1C(F)(F)F)S(C)(=O)=O` + Cc1cc(N2CCOCC2)cc2[nH]c(-c3c(NC[C@@H](O)c4cccc(Cl)c4)cc[nH]c3=O)nc12 [BMS536924] (first compound 0.08 µM, partner dose 0.2 µM), the cell count in the assay with WM115 amounted to 83.1%; in the assay on WM1716, 104%; in the assay with WM1745, 64.2%; with WM3526, 88.4%; in the assay on WM3619, 94.1%; with WM451Lu, 75.9%.

As for `CN(c1ncccc1CNc1nc(Nc2ccc3c(c2)CC(=O)N3)ncc1C(F)(F)F)S(C)(=O)=O` + CC1(C)NC(=O)N(c2ccc([N+](=O)[O-])c(C(F)(F)F)c2)C1=O [nilutamide] (first compound 0.08 µM, partner dose 1 µM), the cell count in the assay with WM115 came out at 87.4%; with WM1716, 94.6%; with WM1745, 88.7%; with WM3526, 84.3%; in the assay with WM3619, 99.3%; in the assay with WM451Lu, 73.1%.

On to `CCCS(=O)(=O)Nc1ccc(F)c(C(=O)c2c[nH]c3ncc(Cl)cc23)c1F` + Cc1cc(N2CCOCC2)cc2[nH]c(-c3c(NC[C@@H](O)c4cccc(Cl)c4)cc[nH]c3=O)nc12 [BMS536924] (first compound 0.08 µM, partner dose 0.2 µM), for which the cell count with WM115 was 88.9%; in the assay with WM1716, 89.6%; with WM1745 it was 78.4%; in the assay with WM3526, 55.8%; in the assay with WM3619, 92.3%; in the assay with WM451Lu, 91.6%.

As to `C=C(c1ccc(C(=O)O)cc1)c1cc2c(cc1C)C(C)(C)CCC2(C)C` [Bexarotene] + O=C(Nc1ccccc1)c1cc([N+](=O)[O-])ccc1Cl [GW9662] (first compound 2 µM, partner dose 2 µM), the cell count in the assay with WM115 turned out to be 99.9%; in the assay on WM1716, 69.7%; in the assay with WM1745, 92.5%; with WM3526 it was 80.6%; in the assay on WM3619, 83.1%; with WM451Lu, 83.4%.

Consider `C=C(c1ccc(C(=O)O)cc1)c1cc2c(cc1C)C(C)(C)CCC2(C)C` [Bexarotene] + Nc1ncn([C@H]2C[C@H](O)[C@@H](CO)O2)c(=O)n1 [decitabine] (first compound 2 µM, partner dose 0.1 µM), for which the cell count in the assay with WM115 came to 91.3%; with WM1716 it was 80.8%; with WM1745 it was 95.5%; with WM3526, 79.3%; in the assay with WM3619, 106%; in the assay on WM451Lu it was 90%.

Turning to `NC1(c2ccc(-c3nc4ccn5c(=O)[nH]nc5c4cc3-c3ccccc3)cc2)CCC1` + Nc1ccn([C@@H]2O[C@H](CO)[C@@H](O)C2(F)F)c(=O)n1 [gemcitabine] (first compound 0.4 µM, partner dose 0.0004 µM), the cell count in the assay with WM115 was 77.5%; in the assay with WM1716, 84.7%; in the assay with WM1745, 85.2%; in the assay on WM3526 it was 85.8%; in the assay on WM3619, 75.4%; in the assay on WM451Lu it was 99.7%.

`C=C(c1ccc(C(=O)O)cc1)c1cc2c(cc1C)C(C)(C)CCC2(C)C` [Bexarotene] + COc1ccc(COc2ccc(Cc3cnc(N)nc3N)cc2OC)cc1 [GW2580] (first compound 2 µM, partner dose 1 µM): the cell count in the assay on WM115 turned out to be 96.2%; in the assay with WM1716, 92.3%; with WM1745 it was 92%; in the assay with WM3526, 93.7%; in the assay with WM3619, 86.5%; in the assay on WM451Lu, 125%.

In the case of `C=C(c1ccc(C(=O)O)cc1)c1cc2c(cc1C)C(C)(C)CCC2(C)C` [Bexarotene] + CCN(CC)CCCCNc1ncc2cc(-c3cc(OC)cc(OC)c3)c(NC(=O)NC(C)(C)C)nc2n1 [PD173074] (first compound 2 µM, partner dose 0.1 µM), the cell count with WM115 came out at 108%; with WM1716, 91%; with WM1745, 98.4%; with WM3526 it was 85.5%; in the assay with WM3619, 93.1%; in the assay on WM451Lu, 93.5%.

For the compound `CN(c1ncccc1CNc1nc(Nc2ccc3c(c2)CC(=O)N3)ncc1C(F)(F)F)S(C)(=O)=O` + Cn1cc(/C=C2\C(=O)Nc3cccnc32)c2ccccc21 [GW441756] (first compound 0.08 µM, partner dose 0.4 µM), the cell count with WM115 stood at 84.4%; with WM1716, 84.7%; in the assay with WM1745, 78.9%; in the assay on WM3526, 145%; in the assay on WM3619, 110%; in the assay on WM451Lu it was 81.7%.

As to `NC1(c2ccc(-c3nc4ccn5c(=O)[nH]nc5c4cc3-c3ccccc3)cc2)CCC1` + O=C(Nc1ccccc1)c1cc([N+](=O)[O-])ccc1Cl [GW9662] (first compound 0.4 µM, partner dose 2 µM), the cell count in the assay on WM115 was 93.2%; in the assay on WM1716 it was 98.2%; in the assay with WM1745 it was 79.9%; with WM3526, 71.4%; in the assay on WM3619, 109%; in the assay with WM451Lu, 104%.

Turning to `CS(=O)(=O)c1ccc(C(=O)Nc2ccc(Cl)c(-c3ccccn3)c2)c(Cl)c1` [vismodegib] + CCc1ccc(CCOc2ccc(CC3SC(=O)NC3=O)cc2)nc1 [pioglitazone] (first compound 1 µM, partner dose 2 µM), the cell count with WM115 is 113%; in the assay with WM1716, 105%; in the assay on WM1745, 94.1%; in the assay with WM3526, 86.1%; in the assay with WM3619, 98.8%; with WM451Lu, 109%.

For `NC1(c2ccc(-c3nc4ccn5c(=O)[nH]nc5c4cc3-c3ccccc3)cc2)CCC1` + CC(=O)c1c(C)c2cnc(Nc3ccc(N4CCNCC4)cn3)nc2n(C2CCCC2)c1=O [palbociclib] (first compound 0.4 µM, partner dose 0.04 µM), the cell count was 63.3% in the assay with WM115; 57.9% with WM1716; 75.2% with WM1745; 56% in the assay on WM3526; 67.7% with WM3619; 77.4% in the assay on WM451Lu.

As to `CS(=O)(=O)c1ccc(C(=O)Nc2ccc(Cl)c(-c3ccccn3)c2)c(Cl)c1` [vismodegib] + O=C(CCCCCCC(=O)Nc1ccccc1)NO [vorinostat] (first compound 1 µM, partner dose 0.08 µM), the cell count in the assay with WM115 worked out at 99.9%; with WM1716 it was 102%; in the assay on WM1745 it was 102%; in the assay with WM3526 it was 82.2%; in the assay on WM3619 it was 97.6%; with WM451Lu, 69.1%.

As for `NC1(c2ccc(-c3nc4ccn5c(=O)[nH]nc5c4cc3-c3ccccc3)cc2)CCC1` + Clc1ccc(Nc2nnc(Cc3ccncc3)c3ccccc23)cc1 [vatalanib] (first compound 0.4 µM, partner dose 2 µM), the cell count in the assay with WM115 came out at 65.5%; with WM1716 it was 89.6%; with WM1745, 84.3%; with WM3526, 65.2%; in the assay with WM3619, 68.8%; in the assay on WM451Lu, 77.6%.

Turning to `C=C(c1ccc(C(=O)O)cc1)c1cc2c(cc1C)C(C)(C)CCC2(C)C` [Bexarotene] + Cc1cc([N+](=O)[O-])ccc1NS(=O)(=O)c1cc(Cl)ccc1Cl [FH535] (first compound 2 µM, partner dose 1 µM), the cell count in the assay on WM115 worked out at 119%; in the assay with WM1716, 83.3%; in the assay with WM1745, 79.4%; in the assay on WM3526, 85.1%; in the assay with WM3619 it was 112%; in the assay on WM451Lu, 95.5%.
